Measured values as given in publication PMC9911399, “Two distinct binding modes provide the RNA-binding protein RbFox with extraordinary sequence specificity”.
Where a chain is given by its changes, count along the chain named. The list shows a part of the results.

B1: CCGCCCC (DNA:RNA)
RNA: GGGAGACCGGAAUUCAGAUUGUCCCCGCCCCUUAAAUCCCGUCGUAGCCACCA
DNA 1: CAATCTGAATTCCGGTCTCCC
DNA 2: TGGTGGCTACGACGGGATT
B2: GAAAGCU (DNA:RNA)
RNA: B1 RNA with C25G, C26A, G27A, C28A, C29G, C31U
DNA 1: CAATCTGAATTCCGGTCTCCC
DNA 2: TGGTGGCTACGACGGGATT
B3: ACACGCU (DNA:RNA)
RNA: B1 RNA with C25A, G27A, C29G, C31U
DNA 1: CAATCTGAATTCCGGTCTCCC
DNA 2: TGGTGGCTACGACGGGATT
B4: CGACUGA (DNA:RNA)
RNA: B1 RNA with C26G, G27A, C29U, C30G, C31A
DNA 1: CAATCTGAATTCCGGTCTCCC
DNA 2: TGGTGGCTACGACGGGATT
B5: AUAACGU (DNA:RNA)
RNA: B1 RNA with C25A, C26U, G27A, C28A, C30G, C31U
DNA 1: CAATCTGAATTCCGGTCTCCC
DNA 2: TGGTGGCTACGACGGGATT
B6: GUACAAC (DNA:RNA)
RNA: B1 RNA with C25G, C26U, G27A, C29A, C30A
DNA 1: CAATCTGAATTCCGGTCTCCC
DNA 2: TGGTGGCTACGACGGGATT
B7: AUGCAUA (DNA:RNA)
RNA: B1 RNA with C25A, C26U, C29A, C30U, C31A
DNA 1: CAATCTGAATTCCGGTCTCCC
DNA 2: TGGTGGCTACGACGGGATT
B8: CUCCGGU (DNA:RNA)
RNA: B1 RNA with C26U, G27C, C29G, C30G, C31U
DNA 1: CAATCTGAATTCCGGTCTCCC
DNA 2: TGGTGGCTACGACGGGATT
B9: GACUGCA (DNA:RNA)
RNA: B1 RNA with C25G, C26A, G27C, C28U, C29G, C31A
DNA 1: CAATCTGAATTCCGGTCTCCC
DNA 2: TGGTGGCTACGACGGGATT
B10: GUAGAAU (DNA:RNA)
RNA: GGGAGACCGGAAUUCAGAUUGUCCGUAGAAUUUAAAUCCCGUCGUAGCCACCA
DNA 1: CAATCTGAATTCCGGTCTCCC
DNA 2: TGGTGGCTACGACGGGATT
B11: GGCAUGA (DNA:RNA)
RNA: B10 RNA with U26G, A27C, G28A, A29U, A30G, U31A
DNA 1: CAATCTGAATTCCGGTCTCCC
DNA 2: TGGTGGCTACGACGGGATT
B12: CAAAUCA (DNA:RNA)
RNA: B1 RNA with C26A, G27A, C28A, C29U, C31A
DNA 1: CAATCTGAATTCCGGTCTCCC
DNA 2: TGGTGGCTACGACGGGATT
B13: UAUACCC (DNA:RNA)
RNA: B1 RNA with C25U, C26A, G27U, C28A
DNA 1: CAATCTGAATTCCGGTCTCCC
DNA 2: TGGTGGCTACGACGGGATT
B14: GAGCUGC (DNA:RNA)
RNA: B1 RNA with C25G, C26A, C29U, C30G
DNA 1: CAATCTGAATTCCGGTCTCCC
DNA 2: TGGTGGCTACGACGGGATT
B15: AAAAGGG (DNA:RNA)
RNA: B10 RNA with G25A, U26A, G28A, A29G, A30G, U31G
DNA 1: CAATCTGAATTCCGGTCTCCC
DNA 2: TGGTGGCTACGACGGGATT
B16: UUGUUCC (DNA:RNA)
RNA: B1 RNA with C25U, C26U, C28U, C29U
DNA 1: CAATCTGAATTCCGGTCTCCC
DNA 2: TGGTGGCTACGACGGGATT
B17: GAGGCUG (DNA:RNA)
RNA: B1 RNA with C25G, C26A, C28G, C30U, C31G
DNA 1: CAATCTGAATTCCGGTCTCCC
DNA 2: TGGTGGCTACGACGGGATT
B18: CCUGUGA (DNA:RNA)
RNA: B1 RNA with G27U, C28G, C29U, C30G, C31A
DNA 1: CAATCTGAATTCCGGTCTCCC
DNA 2: TGGTGGCTACGACGGGATT
B19: CCAAACC (DNA:RNA)
RNA: B1 RNA with G27A, C28A, C29A
DNA 1: CAATCTGAATTCCGGTCTCCC
DNA 2: TGGTGGCTACGACGGGATT
B20: CACGGUC (DNA:RNA)
RNA: B1 RNA with C26A, G27C, C28G, C29G, C30U
DNA 1: CAATCTGAATTCCGGTCTCCC
DNA 2: TGGTGGCTACGACGGGATT

Each binder was assayed against T1, RBFOX1 RRM (Homo sapiens, UniProt Q9NWB1 109-208) (assay: EMSA; HiTS-Eq, 1 nM pool, 10 min; buffer printed only for the single-RNA assays: 10 mM Tris pH 7.5, 150 mM NaCl, 3.4 mM EDTA, 0.001% NP-40, 30 C). Settings: tags: His6 N-terminal (pET28a); label: 5' 32P.
T1 sequence: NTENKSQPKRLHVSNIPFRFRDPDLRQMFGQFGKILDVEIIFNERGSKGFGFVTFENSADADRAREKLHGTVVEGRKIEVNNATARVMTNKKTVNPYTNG
Method in brief: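 Relative association constants, normalised to the cognate motif, were derived by comparing read counts of each RNA species with those of the control reaction. The RNA sequenced was the free fraction, separated by 8% native PAGE after a 10 min equilibration in 50 µL of 1 nM 5′-radiolabelled RNA (7 randomized nucleotides) with increasing concentrations of purified wild-type or mutant RbFox RRM.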
B1 was tested, and the binding signal was 0.0158 KA relative to UGCAUGU. With B2 the binding signal was 0.00823 KA relative to UGCAUGU. B3 was tested, and the binding signal was 0.0024 KA relative to UGCAUGU. For B4, the binding signal was 0.0185 KA relative to UGCAUGU. In the case of B5, the binding signal is reported as 0.00249 KA relative to UGCAUGU. With B6 the binding signal was 0.00266 KA relative to UGCAUGU. B7 was tested, and the binding signal was 0.00891 KA relative to UGCAUGU. B8 was tested, and the binding signal was 0.00418 KA relative to UGCAUGU. For B9, the binding signal was 0.0222 KA relative to UGCAUGU. B10 was tested, and the binding signal was 0.00717 KA relative to UGCAUGU. In the case of B11, the binding signal is reported as 0.156 KA relative to UGCAUGU. For B12, the binding signal was 0.00034 KA relative to UGCAUGU. For B13, the binding signal was 0.00151 KA relative to UGCAUGU. In the case of B14, the binding signal is reported as 0.0153 KA relative to UGCAUGU. With B15 the binding signal was 0.00432 KA relative to UGCAUGU. For B16, the binding signal was 0.0218 KA relative to UGCAUGU. B17 was tested, and the binding signal was 0.0185 KA relative to UGCAUGU. In the case of B18, the binding signal is reported as 0.014 KA relative to UGCAUGU. With B19 the binding signal was 0.00286 KA relative to UGCAUGU. For B20, the binding signal was 0.0125 KA relative to UGCAUGU.
